# Results published in PubChem BioAssay AID1476 (National Center for Advancing Translational Sciences (NCATS), 2009).
# “And” between values parts separate entries of the source, which are not always exact repeats. Identical values can stand only once. Among all 200,000 compounds or so, about 4,500 (2.2%) were called active. This list was built around the results that the source calls inconclusive (neither active nor inactive); the mix of calls is not that of the screen. Calls come from the whole dose curve; as a rule, active = well fitted inhibition curve with a large enough effect; inconclusive = small, poorly fitted or top-dose-only effect, or effect the other way; inactive = flat fitted curve, though single readings scatter. Potencies of inconclusive entries are doubtful fits and often do not repeat.
# Molecular target: Cruzipain (Trypanosoma cruzi) (UniProt P25779)
# Assay: qHTS Assay for Promiscuous and Specific Inhibitors of Cruzain (without detergent); note: nearly all actives have a fitted effect of over 40% in size;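 for max response, negative = inhibition: plate controls were enzyme without inhibitor for no effect and buffer without enzyme for full effect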
# Settings: purified cruzain, Z-FR-AMC fluorescence, no detergent
# Summary of the method: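 Purified cruzain at 1.5 nM, pre-incubated 15 min with compound at room temperature in 100 mM sodium acetate pH 5.5, 5 mM DTT, 0.00005% Triton X-100. Reaction started with 2 uM Z-FR-AMC; AMC fluorescence increase over 60 s gives rate.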
# Potency is the fitted concentration of half-maximal effect; tags give direction and shape of the fitted curve.
# Chain of UniProt P25779 (P25779 whole entry, looked up): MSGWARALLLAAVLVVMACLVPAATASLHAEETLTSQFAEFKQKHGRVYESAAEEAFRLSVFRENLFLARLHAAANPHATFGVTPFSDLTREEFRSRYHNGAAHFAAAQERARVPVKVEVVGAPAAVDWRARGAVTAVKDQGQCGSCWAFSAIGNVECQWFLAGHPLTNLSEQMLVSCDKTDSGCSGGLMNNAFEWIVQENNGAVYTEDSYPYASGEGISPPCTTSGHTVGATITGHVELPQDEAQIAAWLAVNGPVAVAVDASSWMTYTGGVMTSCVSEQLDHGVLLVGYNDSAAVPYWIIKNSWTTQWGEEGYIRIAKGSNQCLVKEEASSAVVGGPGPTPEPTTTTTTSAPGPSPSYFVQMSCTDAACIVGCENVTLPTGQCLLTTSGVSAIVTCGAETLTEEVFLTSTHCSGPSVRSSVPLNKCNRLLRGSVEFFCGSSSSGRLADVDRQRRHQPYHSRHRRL
Compound,"max response, negative = inhibition",Potency
O=C(Nc1ccc(O)c(-c2nc3ccccc3o2)c1)c1sc2ccccc2c1Cl,inactive: 13.5%,
COc1ccccc1N1CCN(C(=O)c2cn(CC(C)C)c(=O)c3c2c2ccccc2n3C)CC1,,"inconclusive: 31.6 µM [activator, single point]"
CCN(CC)CCCNc1oc(-c2ccc(OC)c(OC)c2)nc1C#N,,"inconclusive: 39.8 µM [activator, single point]"
Cc1ccc(C(=O)N2CCc3cc(CNS(=O)(=O)c4cccs4)ccc32)cc1,,"inconclusive: 39.8 µM [inhibitor, single point]"
O=c1cc(-c2cccc(Br)c2)nc(-c2ccccc2F)o1,,active: 10 µM
CCc1ccc(NC(=O)C(C)OC(=O)c2cccc(S(=O)(=O)N3CCc4ccccc4C3)c2)cc1 (stereo not drawn),,active: 15.8 µM
Cc1ccc2oc(=O)c3cc(C(=O)NCCCN4CCc5ccccc5C4)sc3c2c1,,"inconclusive: 39.8 µM [inhibitor, single point]"
O=C(c1ccco1)N1CCC2(CC1)CCN(c1ccccc1)CC2,inactive: 8.47%,
O=C(OCCN1C(=O)c2ccccc2C1=O)c1cc(S(=O)(=O)N2CCOCC2)ccc1F,,"inconclusive: 39.8 µM [activator, single point]"
COc1ccc(C2C(C#N)=C(N)N3C(=C2C#N)Sc2ccccc23)cc1 (stereo not drawn),,active: 6.31 µM
O=C(c1ccccc1)c1ccc2n1CC[C@H]2C(=O)O,inactive: -5.69%,
Cc1ccc(N(CC(=O)Nc2ccccc2-c2ccccc2)S(=O)(=O)c2ccccc2)c(C)c1,,"inconclusive: 39.8 µM [inhibitor, single point]"
COC(=O)c1cc(NS(=O)(=O)c2ccc(N3CCCCCC3)c([N+](=O)[O-])c2)cc(C(=O)OC)c1,,"inconclusive: 31.6 µM [inhibitor, single point]"
O=C(COC(=O)CNC(=O)c1ccc(Cl)cc1)Nc1ccc2c(c1)OCCO2,,active: 10 µM
COc1ccc(-c2nc(C#N)c(N3CCc4ccccc4C3)o2)cc1OC,,"inconclusive: 39.8 µM [activator, single point]"
Cc1nc2c(C(=O)N3CCN(c4ccccn4)CC3)cnn2c(C)c1Cc1cccc(Cl)c1,,"inconclusive: 25.1 µM [activator, single point]"
CCOc1ccc(OCC)c(NC(=O)CN2CCN(c3cccc(C)c3)CC2)c1,,"inconclusive: 39.8 µM [activator, single point]"
O=C(CSc1nc2ccccc2[nH]1)Nc1ccc(F)cc1,,"inconclusive: 12.6 µM [inhibitor, partial curve]"
Cc1ccc(C(=O)c2c(N)c(-c3nc(-c4ccc5c(c4)OCO5)cs3)c3ccccn23)cc1C,,active: 1.58 µM
CCOC(=O)c1c(NC(=O)CC2SC(=NC)N(C)C2=O)sc(C)c1C (stereo not drawn),,"inconclusive: 31.6 µM [activator, single point]"
O=C(CN1C(=O)S/C(=C\c2ccc(Cl)cc2)C1=O)NNC(=O)c1ccccc1O,,active: 20 µM

Compound,"max response, negative = inhibition",Potency
C=Cc1ccccc1Cl,inactive: -0.493%,
COc1cc(-c2nnc(SCCOc3ccc(Cl)cc3)o2)cc(OC)c1OC,,"inconclusive: 31.6 µM [inhibitor, single point]"
CC(C)CCN(Cc1ccco1)C(=O)c1cc2c(s1)-c1ccccc1OC2,,"inconclusive: 31.6 µM [inhibitor, single point]"
CCCCC/C=C\C/C=C\C/C=C\C/C=C\CCCC(=O)O,,"inconclusive: 15.8 µM [activator, partial curve] and inconclusive: 39.8 µM [activator, single point]"
COc1ccc(NC(=O)CCCN2C(=O)C(c3ccccc3)Oc3cccnc32)c(OC)c1 (stereo not drawn),inactive: 17.9%,
CC1CN(c2nc3c(c(=O)n(Cc4ccc(Cl)cc4)c(=O)n3C)n2C)CC(C)O1 (stereo not drawn),,"inconclusive: 31.6 µM [activator, single point]"
CCc1ccc(CNC(=O)CCCN2C(=O)CCn3nc(-c4cccn4C)cc32)cc1,,"inconclusive: 39.8 µM [activator, single point]"
O=C(OCc1nnc(-c2ccccc2)o1)c1cc(S(=O)(=O)N2CCOCC2)c(Cl)cc1Cl,,"inconclusive: 39.8 µM [activator, single point]"
CCOCCCNC(=O)C1CCN(C(=O)c2cc3sccc3n2C)CC1,inactive: 1.78%,
CCOC(=O)N1CCN(C(=O)CN(Cc2ccc(Cl)cc2)S(=O)(=O)c2ccccc2)CC1,,"inconclusive: 31.6 µM [activator, single point]"
O=C(NCCN1CCOCC1)c1noc2c1CCc1ccccc1-2,,"inconclusive: 25.1 µM [inhibitor, single point]"
COc1ccc(/C=N/NC(=O)c2cccc(Br)c2)cc1CSc1ccccn1,,"inconclusive: 39.8 µM [inhibitor, single point]"
Cc1ccccc1N(CC(=O)N/N=C/c1ccc(N(C)C)cc1)C(=O)c1ccccc1,,"inconclusive: 12.6 µM [inhibitor, partial curve, poor fit]"
Cc1cc2c(cc1NC(=O)c1ccccc1C)n(C)c(=O)c(=O)n2C,inactive: -1.56%,
COc1ccccc1N1CCN(C(=O)C2CCN(S(=O)(=O)Cc3ccccc3)CC2)CC1,,"inconclusive: 25.1 µM [activator, single point]"
CC(O)C(NS(=O)(=O)c1ccc(Cl)cc1)C(=O)OCC(=O)N1CCN(c2ccccc2)CC1 (stereo not drawn),,"inconclusive: 31.6 µM [activator, single point]"
NCC1O[C@@H](OC2C(N)C[C@H](N)[C@@H](O[C@H]3OC(CO)C(O)C(N)C3O)C2O)C(N)C(O)C1O (stereo partly drawn),inactive: -5.08%,
COc1ccccc1/C=C/C(=C1/C(=O)N(c2ccccc2)N=C1C)c1ccc(C)cc1,,active: 25.1 µM
CCC(C)(C)n1nnnc1C(c1ccc(OC)c(OC)c1)N1CCN(c2cccc(OC)c2)CC1 (stereo not drawn),,"inconclusive: 31.6 µM [activator, single point]"
CC(=O)OCC(=O)[C@@]1(OC(C)=O)[C@@H](C)C[C@H]2[C@@H]3C[C@H](F)C4=CC(=O)C=C[C@]4(C)[C@@]3(F)[C@@H](O)C[C@@]21C,,"inconclusive: 20 µM [activator, partial curve]"
COc1cc(C2CC(=O)C=C(O)C2)cc(OC)c1OC (stereo not drawn),,"inconclusive: 31.6 µM [activator, single point]"

Compound,"max response, negative = inhibition",Potency
Cc1cc(C)cc(NC(=O)CSc2nc(-c3ccccc3)c3cc(F)ccc3n2)c1,inactive: -3.85%,
CCc1ccc(NC(=O)CC2C(=O)N(c3cccc(OC)c3)C(=O)N2C2CCCC2)cc1 (stereo not drawn),inactive: 2.03%,
CCOc1cc(/C=N/NC(=O)COc2ccc(Cl)cc2)ccc1OS(=O)(=O)c1ccccc1,,"inconclusive: 39.8 µM [inhibitor, single point]"
COc1ccc(-n2c(SCC(=O)c3ccc[nH]3)nnc2-c2ccccc2)cc1,,"inconclusive: 31.6 µM [inhibitor, single point]"
Cc1c2ccccc2c(C)c2c1ccc1ccccc12,,"inconclusive: 31.6 µM [inhibitor, partial curve, poor fit]"
CC(C)(C)OC(=O)N1CCC(c2nnc(SCc3cccc(Cl)c3)o2)CC1,,"inconclusive: 31.6 µM [activator, single point]"
Cc1ccc(CNC(=O)CN2C(=O)COc3ccc(S(=O)(=O)Nc4ccccc4)cc32)cc1,inactive: -5.02%,
COc1ccc(-c2nc(SCC(=O)Nc3ccc4c(c3)OCCO4)c(-c3ccc(C)cc3)[nH]2)cc1OC,,"inconclusive: 12.6 µM [activator, partial curve]"
CCOc1ccc2nc(N/C(N)=N/C(=S)Nc3ccc(C)c(C)c3)nc(C)c2c1,,"inconclusive: 31.6 µM [inhibitor, single point]"
Cc1cn(-c2ccc(Br)cc2)[nH]c1=O,,"inconclusive: 31.6 µM [inhibitor, single point]"
CC1=C(/C=C/C(=C/C=C/C(C)=C/C(=O)O)c2ccc(C)cc2)C(C)(C)CCC1,,"inconclusive: 39.8 µM [activator, single point]"
O=S(=O)(c1ccc(Cl)cc1)c1nc(-c2ccco2)oc1SCc1ccc(F)cc1,,"inconclusive: 39.8 µM [inhibitor, single point]"
COc1ccc(CCN2C(=O)c3[nH]nc(-c4ccccc4O)c3C2c2ccc(OC)cc2)cc1 (stereo not drawn),,"inconclusive: 39.8 µM [inhibitor, single point]"
CC(C)Nc1nc(C#N)nc(NC(C)C)n1,,active: 15.8 µM
CCCCn1c(SCC(=O)Nc2nnc(CC)s2)nc2ccccc2c1=O,,"inconclusive: 39.8 µM [inhibitor, single point]"
O=C(CSc1nc2ccccc2c(=O)[nH]1)NCc1ccc(Cl)cc1,,"inconclusive: 39.8 µM [inhibitor, single point]"
CCOc1ccc(CCNC(=O)c2ccc3c(c2)c(C)c(C)n3Cc2ccccc2)cc1OCC,,"inconclusive: 39.8 µM [inhibitor, single point]"
COc1ccc(-c2oc(NC(=O)c3ccc(C)cc3)c(C#N)c2-c2ccc(OC)cc2)cc1,,active: 12.6 µM
COc1ccc(OC)c(Nc2nc(C3CC3)nc3c2nnn3Cc2ccccc2)c1,inactive: -4.57%,
O=C(NC1=NCCS1)c1cc(-c2cccc(Br)c2)nc2ccccc12,,"inconclusive: 31.6 µM [inhibitor, single point]"
COc1ccccc1/C=N/NC(=O)C1=NNC(c2ccccc2)(c2ccccc2)C1,,active: 15.8 µM
